# Laboratory results: PubChem BioAssay AID1240 (Sanford-Burnham Center for Chemical Genomics, 2008)
# Screen size: about 50,000 compounds; about 800 (1.6%) showed an effect of 50% or more. Some of the results follow.
# Molecular target: Bcl-2-like protein 10 (Homo sapiens) (UniProt Q9HD36)
# Experiment: Phenotype converters, Bcl-B/TR3 peptide binding displacement, primary biochemical FP (AID 1240);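 also: 0% = Bcl-B with tracer peptide and DMSO and 100% = tracer peptide lacking Bcl-B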
# Conditions: GST-Bcl-B / FITC-TR3 peptide fluorescence polarization; stronger effect = higher value; compound at 3.75 mg/L
# Chain of UniProt Q9HD36 (Q9HD36 whole entry, looked up): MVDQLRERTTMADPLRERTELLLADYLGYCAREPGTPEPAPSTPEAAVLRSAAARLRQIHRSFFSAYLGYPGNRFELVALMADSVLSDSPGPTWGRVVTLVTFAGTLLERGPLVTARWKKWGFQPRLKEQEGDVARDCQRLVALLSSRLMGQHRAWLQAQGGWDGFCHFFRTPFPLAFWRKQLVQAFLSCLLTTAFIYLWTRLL
row,SMILES,displacement
1,CC(=O)Nc1ccc(S(=O)(=O)N/N=C/c2ccc[nH]2)cc1,-1.1%
2,COc1cc(Br)c(/C=C2\C(=O)NC(=O)N(c3ccc(C)cc3)C2=O)cc1OC,2.3%
3,C(#Cc1ccccc1)CN1CCN(CC#Cc2ccccc2)CC1,4.2%
4,CCOc1ccc(/C=C2\C(=O)NC(=O)N(c3ccccc3F)C2=O)cc1Cl,5.9%
5,O=C(c1ccc(CN2CCOCC2)cc1)N1CCN(C(=O)c2ccc(CN3CCOCC3)cc2)CC1,2.1%
6,O=C(Nc1ccc(Cc2ccncc2)cc1)c1ccccc1Br,-1.9%
7,CC(C)CCNC(=O)c1cc(Cl)ccc1Cl,3.4%
8,COc1ccc(S(=O)(=O)N2CCN(Cc3cccc(OC)c3)CC2)cc1,7.6%
9,CCSc1nc2ccccc2n1Cc1ccc(OC)c([N+](=O)[O-])c1,10.5%
10,COc1ccc(C(=O)NC(=S)Nc2cc([N+](=O)[O-])cc(Cl)c2O)cc1,11%
11,CCc1cc(C)cc(OCCOc2ccccc2/C=C2/SC(=S)N(C)C2=O)c1,2.3%
12,CCOc1ccc(NC(=O)c2ccc(Cl)cc2Cl)cc1,-5.3%
13,O=C(/C=C/c1cccs1)N1CCN(Cc2ccccc2)CC1,-14.1%
14,O=C(Nc1ccc(Cl)cc1)c1ccccc1C(=O)c1ccc(Cl)cc1,3.7%
15,OC(c1ccccc1)c1nc2ccccc2s1 (stereo not drawn),7.8%
16,COC(=O)C1=CNC=C(C(=O)OC)C1c1ccc(F)c(F)c1,1.8%
17,COc1ccc(C(=O)Nc2nc(C34CC5CC(CC(C5)C3)C4)c(C)s2)cc1,-5.7%
18,COc1ccc(C2C(C(C)=O)=C(C)N=c3s/c(=C\c4ccccc4OC)c(=O)n32)c(OC)c1 (stereo not drawn),-3.1%
19,Nc1c(C(=O)NCc2cccnc2)sc(=S)n1-c1ccccc1,13.1%
20,O=C(c1ccccc1)c1ccc(N2CCCCC2)cc1,8.8%
21,O=C(CCC1CCCC1)NCc1cccnc1,-0.3%
22,COc1ccc(-c2nc(=S)c3c(n2Cc2ccccc2)CCCC3)cc1,10.1%

row,SMILES,displacement
1,Cc1cc(/C=N/NC(=O)CC#N)c(C)n1-c1ccc(Cl)cc1Cl,-14.5%
2,CC(=O)C1=C(Nc2ccccc2)CC(C)(O)C(C(C)=O)C1c1ccccc1F (stereo not drawn),-9%
3,COc1ccc(/C=C2\SC(=O)N(CC(=O)NC(C)(C)C)C2=O)cc1OC,15%
4,c1ccc(OCCN2CCOCC2)cc1,-9.8%
5,O=C(O)c1ccc(N2C(=O)CC(Cc3ccccc3)C2=O)cc1 (stereo not drawn),12.2%
6,O=C(Nc1ccccn1)c1cc(Br)ccc1Cl,-2.1%
7,CCSc1nnc(NC(=O)c2ccc(Cl)cc2Cl)s1,11.8%
8,CCC(=O)Nc1ccc(NC(=O)c2ccco2)c(OC)c1,-3.3%
9,C=CCC(C(=O)C(C)C)C(=O)C(C)(C)OC (stereo not drawn),8%
10,COCCCNC(=O)/C(=C/c1cccc([N+](=O)[O-])c1)NC(=O)c1ccc(OC)cc1,11.7%
11,COc1cccc(N2C(=O)CC(N3CCCCC3)C2=O)c1 (stereo not drawn),-8.8%
12,Cc1nn(CC(=O)Nc2sc(C)c(C)c2C(N)=O)c(C)c1[N+](=O)[O-],14.5%
13,Cc1cc(C)c(NC(=O)c2ccc3c(c2)C(=O)N(c2ccc(Sc4ccc([N+](=O)[O-])cc4)cc2)C3=O)c(C)c1,11.8%
14,O=C1CC(c2ccc(OC(F)(F)F)cc2)c2ccc3ccccc3c2N1 (stereo not drawn),-14.7%
15,CC(=O)Nc1ccc(OC(=O)c2c(F)cccc2F)cc1,17.9%
16,COc1ccccc1C/C(N)=N/OC(=O)COc1ccc(C)cc1,2.8%
17,Cc1nn(-c2ccccc2)c(N2CCCCC2)c1C=O,-2.3%
18,Cc1cccc(N2C(=O)c3cccc4c(N5CCCCC5)ccc(c34)C2=O)c1,15.5%
19,O=C(Nc1ccc(Cl)cc1Cl)C1C(c2ccccc2)C1(Cl)Cl (stereo not drawn),-1.2%
20,Cc1cc(=O)oc2c1ccc1oc(C(=O)c3ccc(Cl)cc3)c(C)c12,4.1%
21,CCOc1ccc(C=C2C(=O)c3ccccc3C2=O)cc1Cl,-12.8%
22,Cc1ccc(S(=O)(=O)N(Cc2ccccc2)c2ccccc2C(=O)NCc2ccc(Cl)cc2)cc1,11.8%

row,SMILES,displacement
1,O=C(Nc1ccc(F)cc1F)N1CCCc2ccccc21,-8.5%
2,Nc1nnc(Cc2ccc(Br)cc2)s1,2.8%
3,CCN(C(=O)c1cc(OC)c(OC)c(OC)c1)c1ccccc1C,-11.8%
4,CCOC(=O)c1ccccc1NC(=O)CN(c1ccc(C)cc1)S(C)(=O)=O,-0.8%
5,CCOC(=O)C1=C(C)NC(C)=C(C(=O)OC)C1c1cc(Cl)cc(Cl)c1OC (stereo not drawn),7.1%
6,CCc1nnc(NC(=O)c2cnccn2)s1,-15.7%
7,CCOc1ccc(-c2c(C#N)c(N)nc3sc(C#N)c(N)c23)cc1,-1.4%
8,CC(C)C(=O)O/N=C(\N)c1ccncc1,-18.5%
9,O=C(c1ccc(-c2ccccc2)cc1)N1CCN(C2CCN(Cc3ccccc3)CC2)CC1,-11.6%
10,CC(=O)c1cccc(NC(=O)CC2S/C(=N\N=C\c3ccc(C)o3)NC2=O)c1 (stereo not drawn),-2.4%
11,O=C1NC(=Nc2ccc(Cl)cc2)SC1Cc1cccc([N+](=O)[O-])c1 (stereo not drawn),-4.7%
12,Cc1ccc(OC(=O)C23CC4CC(CC(C4)C2)C3)c(C)n1,15.4%
13,COc1cc(NS(=O)(=O)c2c(C)cc(C)cc2C)c(OC)cc1Cl,2.2%
14,CN(c1ccccc1)c1ccc(/C=C2\C(=O)ON=C2c2ccccc2)cc1,-15.6%
15,CC(C)=C1C2CCC1C(C(=O)NCCc1ccccc1)C2C(=O)O (stereo not drawn),-0.4%
16,O=[N+]([O-])c1ccc(C2Nc3ccc(Br)cc3C3C=CCC32)cc1 (stereo not drawn),3.1%
17,O=C1C(Cl)=C(c2ccc(Cl)cc2)C(=O)N1c1ccc([N+](=O)[O-])cc1,5.4%
18,COc1ccc(N(C(C)C(=O)NN=C2CCN(C)CC2)S(C)(=O)=O)cc1 (stereo not drawn),3.9%
19,Cc1nc2ccccn2c1C(=O)NCc1ccc(Cl)cc1,-3.9%
20,CCOc1ccc(-c2nc(-c3ccc(F)cc3)no2)cc1,-3.2%
21,CC(C)(C)c1ccc(C(=O)N/N=C/C2CC=CCC2)cc1 (stereo not drawn),-4%
22,CN(C)c1ccc(N=C2Sc3ccc4ccccc4c3C2=O)cc1,-5.7%

row,SMILES,displacement
1,COc1ccc(Cl)cc1C(=O)Nc1ccccc1I,11.4%
2,O=C(c1ccco1)N1CCN(C(c2ccccc2)c2ccccc2)CC1,14.9%
3,Cc1cc(C)cc(OCC(=O)NNC(=O)c2c(C)cc(C)cc2C)c1,6%
4,CC(=O)C1=C(O)C(=O)N(C)C1c1ccccc1[N+](=O)[O-] (stereo not drawn),2.8%
5,CC(C)c1ccc(-n2c(-c3ccccc3)nc3c(cnn3-c3ccccc3)c2=O)cc1,4.6%
6,CCc1ccccc1NC(=O)c1cc2n(n1)C(C(F)(F)F)CC(c1ccccc1)N2 (stereo not drawn),-0.6%
7,CCN1C(=O)NC(c2ccccc2[N+](=O)[O-])C(C(=O)OCCOC)=C1C (stereo not drawn),11.9%
8,CCCS(=O)(=O)C(=C(Nc1ccc(CC)cc1)Nc1ccc(CC)cc1)S(=O)(=O)CCC,16.1%
9,CCOc1cc(/C=C2/SC(=S)N(C)C2=O)ccc1OCCOc1ccc(C(C)(C)C)cc1,0.7%
10,COc1ccc(CC(=O)Nc2ccccc2NC(C)=O)cc1OC,-1.2%
11,CCOC(=O)c1ccc(N2NC(=O)/C(=C/c3cccc(OC)c3O)C2=O)cc1,12.4%
12,O=C(CCCOc1ccccc1)Nc1cccc([N+](=O)[O-])c1,3.1%
13,CC1=NN(c2ccc(S(N)(=O)=O)cc2)C(=O)/C1=C\c1ccc(-c2ccc(S(N)(=O)=O)cc2)o1,0.5%
14,O=C(NC1CCS(=O)(=O)C1)c1ccc(Br)cc1 (stereo not drawn),6.8%
15,COc1ccc(CCC(=O)NCc2ccc(Cl)c(Cl)c2)cc1,1.2%
16,O=C(COc1ccc(Cl)cc1Cl)Nc1ccc(S(=O)(=O)N2CCc3ccccc32)cc1,12.5%
17,CCCOc1ccc(C(=O)Nc2ccc(O)c(-c3nc4ccccc4s3)c2)cc1,16.5%
18,Cc1c(Cl)cccc1NC(=O)C(=O)NCc1ccco1,3.2%
19,Cc1ccc(N2C(=O)/C(=C/c3ccc(Oc4ccc([N+](=O)[O-])cn4)cc3)C(=O)NC2=S)c(C)c1,7.3%
20,CCOC(=O)C(C(=O)OCC)=C(CCN1C(=O)c2ccccc2C1=O)OC(=O)CCN1C(=O)c2ccccc2C1=O,-4%
21,COc1ccccc1N1CCN(/N=C\c2c(O)ccc3ccccc23)CC1,46.6%
22,O=c1c(C=NC2CC2)c(-c2ccccc2)[nH]n1-c1ccc([N+](=O)[O-])cc1,5.9%

row,SMILES,displacement
1,Cc1nn(CC(=O)Nc2c(Cl)cccc2Cl)c(=O)c2ccccc12,-15.9%
2,O=C(COc1ccc(Cl)cc1)Nc1nc(-c2ccc(S(=O)(=O)N3CCOCC3)cc2)cs1,9.4%
3,O=C(Nc1ccc2c(c1)C(=O)N(c1ccccc1)C2=O)c1ccccc1Cl,0.1%
4,COc1ccc(/C=C(\NC(=O)c2ccccc2)C(=O)NCc2ccncc2)cc1,12.6%
5,CCCNc1nc(OCC(F)(F)F)nc(OCC(F)(F)F)n1,12.4%
6,COc1ccccc1/C=C1\SC(=S)N(CCC(=O)NNC(=O)c2ccccc2O)C1=O,14.7%
7,Cc1ccc(C(=O)Oc2ccc3c(C)cc(=O)oc3c2)cc1,3.9%
8,O=C(CCC1CCCCC1)NCC1CCCO1 (stereo not drawn),-7.2%
9,COc1cc(OC)cc(C(=O)Nc2ccc(C(N)=O)cc2)c1,9.6%
10,Cc1c(Cl)cccc1N=Cc1c[nH]c2ccccc12,10.3%
11,S=c1[nH]nc2c3c4c(sc3n3c(=S)[nH]nc3n12)CCC4,-1.2%
12,COc1cccc(/C=C2\C(=O)NC(=O)N(c3ccccc3)C2=O)c1OC,-8.7%
13,Cc1ccc(/C(O)=C2\C(=O)C(=O)N(c3nncs3)C2c2cccc(Br)c2)cc1 (stereo not drawn),18.7%
14,CCOC(=O)c1c(NC(=O)C2CC2)sc(C(=O)Nc2cccc(OC)c2)c1C,-5.8%
15,O=C(NC(=S)Nc1ccc(Cl)c(-c2nc3ccccc3s2)c1)c1ccco1,5.8%
16,COc1ccc(Cc2c(O)nc(SC)n(-c3ccccc3)c2=O)cc1,-7.8%
17,O=C1c2ccccc2C(=O)c2c1nc1n2CCOC1,4%
18,N/C(Cc1cccc2ccccc12)=N\OC(=O)c1ccco1,6.6%
19,CCOc1ccc(/C=N\N2CCN(c3ccccc3OC)CC2)cc1,-15.2%
20,Cc1nn(-c2ccccc2C(=O)O)c(C)c1Oc1ccccc1O,-8.1%
